The full ranking holds about 33,000 sequences; the median of “E-score (-0.5 to 0.5)” is about -0.032, and the highest 2% start at about 0.36. Some of the results follow.

This assay deals with T1, Sko1 (UniProt Q02100).
T1 sequence: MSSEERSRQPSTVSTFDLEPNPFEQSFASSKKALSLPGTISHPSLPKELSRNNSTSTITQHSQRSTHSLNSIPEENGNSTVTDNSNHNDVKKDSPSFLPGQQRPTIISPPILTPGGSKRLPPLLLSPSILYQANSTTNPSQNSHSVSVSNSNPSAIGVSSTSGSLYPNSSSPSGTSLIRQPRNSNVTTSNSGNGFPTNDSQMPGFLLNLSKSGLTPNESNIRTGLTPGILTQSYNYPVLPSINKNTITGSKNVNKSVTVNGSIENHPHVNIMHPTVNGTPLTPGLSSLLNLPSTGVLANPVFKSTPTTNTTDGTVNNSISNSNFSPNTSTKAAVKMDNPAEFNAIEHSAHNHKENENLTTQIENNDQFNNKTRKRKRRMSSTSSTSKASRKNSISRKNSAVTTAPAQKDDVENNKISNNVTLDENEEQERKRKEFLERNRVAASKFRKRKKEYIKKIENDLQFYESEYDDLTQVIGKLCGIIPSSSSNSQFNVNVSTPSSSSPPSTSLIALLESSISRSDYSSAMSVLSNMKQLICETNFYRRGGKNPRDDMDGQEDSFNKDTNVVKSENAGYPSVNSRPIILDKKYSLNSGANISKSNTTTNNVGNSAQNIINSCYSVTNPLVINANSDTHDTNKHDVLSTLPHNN
Kind of assay: PBM E-score (8-mer binding enrichment) (E-score (-0.5 to 0.5)); higher = stronger / more preferred TF binding; most listed sequences are background and not binding sites. The following applies: protein concentration: 200 nM; construct: GST-full length. Put shortly:
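Yeast transcription factors, full-length or as DNA-binding domains, were expressed with a GST tag using PURExpress in vitro transcription/translation. At about 100-200 nM they were applied to universal all-10-mer Agilent arrays, double-stranded by primer extension on fresh or once-stripped slides. Fluorescent anti-GST detected bound protein, and masliner normalised the scans. E-scores for ungapped eight-base words, pooled with reverse complements, came from the Universal PBM Analysis Suite.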
As to CTTATACC, the “PBM E-score” value is -0.0623. Then AGTCTAAA, with -0.0217. Then CTTCCGAC, with -0.0849; and GGGGCCCC, with -0.258; and GTTTCGTA, with 0.326. Then AAGTTGCA, with 0.0498. In the case of AAGCGGCA, the “PBM E-score” value was -0.0835.

For GAAGCAAA, the “PBM E-score” value is 0.0725.

With AGTACGAT, the “PBM E-score” value is 0.122. Then CGGGGCGA, with -0.182. To AACCCAAG belongs -0.00525; to CAGTAGGC, -0.142; to TGTACGAA, 0.242. Turning to CCGCGCGA, the “PBM E-score” value worked out at 0.0754. As to GTTATATA, the “PBM E-score” value worked out at 0.19. To CTCGAGAC belongs 0.12; to ATCAACTC, 0.0355; to CTATCGGC, -0.141. Then AAGGCGAC, with -0.299; and CGTTGTGC, with 0.172; and ACGGCAGT, with -0.061. As to CACACTCG, the “PBM E-score” value was found to be 0.076. Then CAGCTGAC, with 0.0244; and CACGTCGC, with 0.235. To GCAGGAGC belongs -0.305; to ATCCACAA, -0.00828.

GAGATATA: the “PBM E-score” value amounted to 0.0861.

In the case of ATTCCTTC, the “PBM E-score” value was -0.128. Take AGTTGTGA: the “PBM E-score” value came out at 0.0903.

In the case of AATACGGC, the “PBM E-score” value worked out at 0.0384. To ACGAATAC belongs 0.313. To GGAAACAA belongs -0.0744. To CCAAACAA belongs 0.0665; to ACACCATG, -0.0632; to CCTTGTAA, 0.00983. In the case of CCGCCCGC, the “PBM E-score” value was -0.28. Then ATTATTGC, with 0.253; and GATCAGAC, with -0.126. As to AAGCCTCG, the “PBM E-score” value was -0.137. To TAGATTAA belongs 0.206; to CCCGGCTC, -0.337. To CCTTCGAA belongs -0.28; to CGAGCGTC, -0.117. Then AGACTCTA, with -0.13; and CAATCAAA, with 0.0195; and AACAATCC, with 0.0558. CCCCTGTA: the “PBM E-score” value is -0.164. For CGGCTGTC, the “PBM E-score” value is -0.239. Then ACACTAAT, with 0.119; and CCCAACAC, with -0.283; and CACTATGA, with 0.0491.

For the sequence ACTATAAT, the “PBM E-score” value came out at 0.00975.

On to AGGAAATC, for which the “PBM E-score” value was 0.038.

Regarding CCACAAAA, the “PBM E-score” value was determined as 0.132.

In the case of ACGTTGCG, the “PBM E-score” value amounted to 0.284. For the sequence CCTGTAAC, the “PBM E-score” value is -0.0911.

On to GCCATAGC, for which the “PBM E-score” value was found to be 0.0202.

Consider AAATCATC, for which the “PBM E-score” value came out at 0.0854. Then AAAAATGT, with 0.115; and AGACTCTG, with -0.227. To AAGTAGCT belongs 0.0695; to GTTGTATA, 0.254; to AAGAGGCA, -0.0883. Then AATGATCC, with -0.00177; and AGAACAAG, with 0.13; and CCAAGCAA, with -0.0553. CACGTGCC: the “PBM E-score” value was found to be 0.278. In the case of CTGTTTCC, the “PBM E-score” value is -0.0778. Consider AGTTAGAG, for which the “PBM E-score” value was -0.171.

Consider AGAATTGA, for which the “PBM E-score” value is -0.0615. With GTTAGTGA, the “PBM E-score” value was determined as 0.186.

Turning to ACGTGTGC, the “PBM E-score” value was 0.388. To AAAGTCGG belongs -0.105; to AGCAGTGG, -0.222. To AGGTCTGA belongs 0.0487; to TTATCCAA, 0.2; to GACGGAAC, -0.0203.

Turning to AACGCCGA, the “PBM E-score” value turned out to be 0.0746.

On to CTGCGACC, for which the “PBM E-score” value was -0.341. Then AGCGGAAC, with -0.265. To CTAGCTTA belongs 0.147; to ATAGCGGA, -0.0894; to GGACAATA, -0.0748. Then GACAGCGC, with -0.179. Turning to ACTCGAGG, the “PBM E-score” value is -0.161. As to AGAAAAAT, the “PBM E-score” value was found to be 0.152.

The values are drawn from the supplement of paper PMC3334620.
